{"source": "the supplement of paper PMC3334620", "note": "The full ranking holds about 33,000 sequences; the median of “E-score (-0.5 to 0.5)” is about -0.054, and the highest 2% start at about 0.39. This is one part of the list.", "data": [{"target": "Ylr278c (UniProt Q05854)", "assay": "PBM E-score (8-mer binding enrichment) (E-score (-0.5 to 0.5)); higher = stronger / more preferred TF binding; most listed sequences are background and not binding sites", "conditions": "protein concentration: 200 nM; construct: GST-DNA-binding domain", "how_it_was_run": "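Yeast transcription factors, full-length or as DNA-binding domains, were expressed with a GST tag using PURExpress in vitro transcription/translation. At about 100-200 nM they were applied to universal all-10-mer Agilent arrays, double-stranded by primer extension on fresh or once-stripped slides. Fluorescent anti-GST detected bound protein, and masliner normalised the scans. E-scores for ungapped eight-base words, pooled with reverse complements, came from the Universal PBM Analysis Suite.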", "values": [{"sequence": "CTTCGCTA", "PBM E-score": -0.0775}, {"sequence": "TCAGAGAA", "PBM E-score": -0.257}, {"sequence": "ACCGTATC", "PBM E-score": 0.124}, {"sequence": "CATATAAG", "PBM E-score": -0.156}, {"sequence": "CTTCATAA", "PBM E-score": -0.0885}, {"sequence": "CCACTAGG", "PBM E-score": -0.292}, {"sequence": "AATACCGC", "PBM E-score": 0.268}, {"sequence": "ACTTCCAT", "PBM E-score": 0.135}, {"sequence": "GGGTCCTA", "PBM E-score": -0.0538}, {"sequence": "CATTGACC", "PBM E-score": -0.0145}, {"sequence": "CGACAACA", "PBM E-score": -0.00857}, {"sequence": "ATTTTCCA", "PBM E-score": 0.0304}, {"sequence": "GGTCGCAC", "PBM E-score": -0.0112}, {"sequence": "GAGCTACC", "PBM E-score": -0.0733}, {"sequence": "GCTGTGCC", "PBM E-score": 0.014}, {"sequence": "CCAATAAG", "PBM E-score": -0.191}, {"sequence": "TGCCCGAA", "PBM E-score": 0.00494}, {"sequence": "GAGAAGCC", "PBM E-score": 0.132}, {"sequence": "ACGCCTTA", "PBM E-score": -0.184}, {"sequence": "GTATCCGA", "PBM E-score": 0.291}, {"sequence": "CCACGGAA", "PBM E-score": 0.34}, {"sequence": "GAAGTCGC", "PBM E-score": -0.0286}, {"sequence": "ATGGGGCC", "PBM E-score": -0.172}, {"sequence": "AACAGAGA", "PBM E-score": -0.0134}, {"sequence": "CTATGTTC", "PBM E-score": -0.00542}, {"sequence": "CAATGAAG", "PBM E-score": -0.173}, {"sequence": "AATAGTAT", "PBM E-score": 0.0535}, {"sequence": "CCATCAAC", "PBM E-score": -0.198}, {"sequence": "GCCAGCGA", "PBM E-score": -0.266}, {"sequence": "AGACCACT", "PBM E-score": -0.0955}, {"sequence": "AATAAGTC", "PBM E-score": -0.164}, {"sequence": "AACGGTTA", "PBM E-score": -0.112}, {"sequence": "AACTTATT", "PBM E-score": 0.107}, {"sequence": "ACACTAGC", "PBM E-score": -0.183}, {"sequence": "AACTGTAG", "PBM E-score": -0.24}, {"sequence": "AAGTATCC", "PBM E-score": -0.0705}, {"sequence": "CGGACACG", "PBM E-score": 0.306}, {"sequence": "AAATACAA", "PBM E-score": 0.00888}, {"sequence": "CGGGGGTC", "PBM E-score": 0.256}, {"sequence": "CACTTCGC", "PBM E-score": -0.169}, {"sequence": "GCCTGTAC", "PBM E-score": -0.0696}, {"sequence": "CCGGCTCG", "PBM E-score": 0.304}, {"sequence": "CGACGAGA", "PBM E-score": 0.0179}, {"sequence": "GGGAACCC", "PBM E-score": 0.124}, {"sequence": "CATGAAAA", "PBM E-score": -0.161}, {"sequence": "TACATCAA", "PBM E-score": -0.14}, {"sequence": "AGATTTGG", "PBM E-score": -0.127}, {"sequence": "CCGACTCG", "PBM E-score": 0.224}, {"sequence": "CACAACCA", "PBM E-score": 0.0195}, {"sequence": "GAGTGGGC", "PBM E-score": -0.0288}, {"sequence": "AATTCTGC", "PBM E-score": 0.0901}, {"sequence": "AAGCGGCG", "PBM E-score": 0.222}, {"sequence": "AACACTGA", "PBM E-score": -0.0662}, {"sequence": "GCAGAGCC", "PBM E-score": -0.128}, {"sequence": "CTATTGCC", "PBM E-score": -0.0226}, {"sequence": "AACTCATC", "PBM E-score": 0.054}, {"sequence": "GGGCTAAC", "PBM E-score": -0.163}, {"sequence": "CGGCGTGC", "PBM E-score": 0.246}, {"sequence": "AACGGAAG", "PBM E-score": 0.0937}, {"sequence": "CCGTTCAA", "PBM E-score": 0.189}, {"sequence": "GTAATCCA", "PBM E-score": 0.103}, {"sequence": "AGAATCAA", "PBM E-score": -0.031}, {"sequence": "CCGAAACC", "PBM E-score": 0.241}, {"sequence": "ACTCCATG", "PBM E-score": 0.0943}, {"sequence": "CACGCTAG", "PBM E-score": -0.166}, {"sequence": "GTGCTACA", "PBM E-score": -0.282}, {"sequence": "GGATCCCC", "PBM E-score": 0.33}, {"sequence": "CATCTGCA", "PBM E-score": -0.0913}, {"sequence": "CTTGGCCC", "PBM E-score": -0.197}, {"sequence": "GTTGCCCA", "PBM E-score": -0.0193}, {"sequence": "AGCTTGTG", "PBM E-score": -0.25}, {"sequence": "TTCGAAAA", "PBM E-score": 0.0013}, {"sequence": "TAGCAGAA", "PBM E-score": -0.0598}, {"sequence": "ATTTAGCA", "PBM E-score": -0.154}, {"sequence": "AGGATGAG", "PBM E-score": -0.265}, {"sequence": "ACGTGGAA", "PBM E-score": 0.00293}, {"sequence": "AGGGAGAC", "PBM E-score": -0.0299}, {"sequence": "CCTCTGGC", "PBM E-score": -0.0747}, {"sequence": "ATACTCCC", "PBM E-score": 0.243}, {"sequence": "AAGTAGTA", "PBM E-score": -0.204}, {"sequence": "CGCGAATC", "PBM E-score": 0.0146}, {"sequence": "ACCAAGAA", "PBM E-score": -0.00132}, {"sequence": "CACTCACC", "PBM E-score": -0.124}, {"sequence": "AAGGCTCT", "PBM E-score": -0.214}, {"sequence": "AGTCCCCC", "PBM E-score": -0.261}, {"sequence": "AGAAGAAT", "PBM E-score": 0.00676}, {"sequence": "ATGTCCCC", "PBM E-score": 0.042}, {"sequence": "ATTACTTC", "PBM E-score": -0.0841}, {"sequence": "CCTTTGGA", "PBM E-score": -0.189}, {"sequence": "CTTATATC", "PBM E-score": 0.00366}, {"sequence": "AGGATAGA", "PBM E-score": -0.124}, {"sequence": "AGATCCCC", "PBM E-score": 0.162}, {"sequence": "CCTAATCA", "PBM E-score": -0.0371}, {"sequence": "CTCTTAAA", "PBM E-score": 0.0697}, {"sequence": "AGTCTCGG", "PBM E-score": 0.223}, {"sequence": "ATGGCATA", "PBM E-score": -0.202}, {"sequence": "AGCCCATG", "PBM E-score": -0.131}, {"sequence": "CGACTATA", "PBM E-score": -0.0135}, {"sequence": "CTATCCAC", "PBM E-score": -0.0748}, {"sequence": "AGCCCTAA", "PBM E-score": -0.0219}, {"sequence": "ACACACGA", "PBM E-score": -0.0369}, {"sequence": "ACTGGATC", "PBM E-score": -0.0196}, {"sequence": "ATACTGCA", "PBM E-score": 0.114}, {"sequence": "CGCCACTC", "PBM E-score": 0.114}, {"sequence": "CAGATCAG", "PBM E-score": -0.13}, {"sequence": "AAAGCGCC", "PBM E-score": 0.0702}, {"sequence": "CGTTCCTA", "PBM E-score": -0.108}, {"sequence": "AAATGAAT", "PBM E-score": -0.0825}, {"sequence": "AGATAATA", "PBM E-score": -0.121}, {"sequence": "AGAGAAAT", "PBM E-score": -0.0493}, {"sequence": "AAACGTGG", "PBM E-score": -0.234}, {"sequence": "GAGGTGCA", "PBM E-score": 0.13}, {"sequence": "ACCATGAT", "PBM E-score": -0.11}, {"sequence": "CTAGTCAA", "PBM E-score": -0.149}, {"sequence": "GGGTAGAC", "PBM E-score": -0.0811}, {"sequence": "CGGCCAAG", "PBM E-score": 0.204}, {"sequence": "TTGGCAAA", "PBM E-score": -0.108}, {"sequence": "CTCTTGCA", "PBM E-score": -0.255}, {"sequence": "TAATGGCA", "PBM E-score": -0.163}, {"sequence": "ATCTCACC", "PBM E-score": 0.0654}, {"sequence": "ACCTTGAC", "PBM E-score": -0.12}, {"sequence": "ACATCCTC", "PBM E-score": 0.0598}, {"sequence": "CGCTCGCC", "PBM E-score": 0.168}, {"sequence": "CTCCGCGA", "PBM E-score": 0.403}, {"sequence": "AGTCTCCA", "PBM E-score": -0.312}, {"sequence": "GCTCAAGA", "PBM E-score": -0.18}, {"sequence": "CTGTATTC", "PBM E-score": 0.133}, {"sequence": "GGTGTGTA", "PBM E-score": -0.176}, {"sequence": "CCGAATCC", "PBM E-score": 0.341}, {"sequence": "CCGATGAG", "PBM E-score": 0.258}, {"sequence": "CCATTGCC", "PBM E-score": 0.0262}, {"sequence": "ACGCTAAT", "PBM E-score": 0.105}, {"sequence": "CAGGACGG", "PBM E-score": -0.00316}, {"sequence": "ATCTCAAT", "PBM E-score": -0.0596}, {"sequence": "ACAGTGCT", "PBM E-score": -0.163}, {"sequence": "ATTTAAAC", "PBM E-score": -0.0196}, {"sequence": "AGTCACTG", "PBM E-score": -0.227}, {"sequence": "CTCCTTAA", "PBM E-score": 0.0108}, {"sequence": "GGCTGGAC", "PBM E-score": -0.177}, {"sequence": "ACGAACTC", "PBM E-score": 0.0871}, {"sequence": "ATATGTCG", "PBM E-score": -0.00558}, {"sequence": "TAACCTTA", "PBM E-score": -0.161}, {"sequence": "AATATACA", "PBM E-score": -0.0821}, {"sequence": "CGTGTTCA", "PBM E-score": -0.173}, {"sequence": "GGTGGTGA", "PBM E-score": 0.0539}, {"sequence": "GGACGGTA", "PBM E-score": 0.0532}, {"sequence": "AGGACGAT", "PBM E-score": -0.165}, {"sequence": "AGGAACCG", "PBM E-score": 0.171}, {"sequence": "CACGCGAC", "PBM E-score": -0.0553}, {"sequence": "CGCGCATA", "PBM E-score": 0.113}, {"sequence": "ATCGGAAT", "PBM E-score": 0.443}, {"sequence": "CCTCTGGA", "PBM E-score": -0.0492}, {"sequence": "ACATAAGG", "PBM E-score": 0.0479}, {"sequence": "GCCTGTCA", "PBM E-score": -0.159}, {"sequence": "AACTGACG", "PBM E-score": -0.0953}, {"sequence": "CCGTTCGC", "PBM E-score": 0.0601}, {"sequence": "AGTTGAAG", "PBM E-score": -0.0893}, {"sequence": "CCGCAGCC", "PBM E-score": 0.265}, {"sequence": "CACATAAC", "PBM E-score": -0.214}, {"sequence": "ACACCCTA", "PBM E-score": -0.263}, {"sequence": "AAGCAACC", "PBM E-score": -0.0861}, {"sequence": "GGTTACTA", "PBM E-score": -0.0127}, {"sequence": "AACACATC", "PBM E-score": 0.0521}, {"sequence": "ATCCGACG", "PBM E-score": 0.367}, {"sequence": "AGAGCGCT", "PBM E-score": -0.138}, {"sequence": "GCGACGAA", "PBM E-score": -0.0396}, {"sequence": "ACGTAAAA", "PBM E-score": -0.139}, {"sequence": "CCTTTAAA", "PBM E-score": -0.18}, {"sequence": "AAGCAATG", "PBM E-score": 0.0606}, {"sequence": "TAAGGCTA", "PBM E-score": -0.251}, {"sequence": "AAGAGATT", "PBM E-score": 0.147}, {"sequence": "CCGCACGC", "PBM E-score": 0.137}]}]}
